Screen size: about 150,000 compounds; about 540 (0.36%) showed an effect of 50% or more. Some of the results follow.
tested on: Plasmodium falciparum; test: Primary screen in NF54 nanoGlo assay, in single point, at 2uM, 72h; a lower Z score goes with more inhibition; assay type: functional, Erythrocyte; conditions: timepoint 72 hour

SMILES	% Inhibition	Z score
Cc1nc(-c2cc(S(=O)(=O)Nc3cccc(F)c3)cn2C)sc1C(=O)N1CCCCC1	-20%	2.37
CCc1nc(-c2cc(CC(C)C)[nH]c(=O)n2)n(Cc2ccccc2Cl)n1	-17%	1.53
O=C(Nc1nc2c(s1)CCC2)c1ccco1	-6%	0.52
CNC(=O)c1cccc(CN2CCC(CN3CCc4ccccc43)CC2)c1	-7%	1
O=C(NC1(c2cccc(Cl)c2)CCCC1)c1cnccn1	-1%	0.14
CC(C)(CNc1ncccc1S(C)(=O)=O)c1ccncc1	-3%	0.5
Cc1c[nH]nc1NC(=O)[C@H](C)NC(=O)CC1CCCCC1	-4%	0.62
CC(=O)N1C[C@@H]2CCN(C(=O)c3ccc(Cl)cc3)C[C@]2(CO)C1	2%	-0.27
Cc1cccn(CC(=O)N(C2CC2)[C@@H](C)c2ccc(Cl)cc2)c1=O	-4%	0.59
CN1CCC(CNC(=O)C2(O)CCc3cc(Br)ccc3C2)CC1=O (configuration not stated)	-1%	0.2
Cc1c(CN(C)CC(=O)Nc2cccc(Cl)c2Cl)cnn1C	-3%	0.33
COc1ccc(C(=O)N2CCC[C@H](C(=O)Nc3ccccc3O)C2)c2ccccc12	11%	-1.27
CC(C)[C@H](C)N(CC(F)(F)F)C(=O)c1cc2c(cn1)OCCC2	0%	-0.02
CCN(CC)CCN(C)C(=O)c1cnn(-c2nccc(-c3ccc4c(c3)OCO4)n2)c1-c1ccco1	16%	-1.97
CN1CCN(C(=O)c2ccc(-c3ccccc3F)o2)CC1	-15%	2.07
C[C@H](NC(=O)CNC(=O)OCc1ccccc1)c1cccs1	10%	-1.36
COc1cccc(-c2cc(C(F)(F)F)n3ncc(C(=O)N4CCc5ccccc5C4)c3n2)c1	-8%	1.13
Cc1c(Nc2cnn(C)c2)nn2c(C(F)(F)F)nnc2c1C	-1%	0.12
CC1=C(CCN2CCc3[nH]cnc3[C@@H]2c2cnn(C)c2)C(C)(C)CCC1	10%	-1.83
O=C(CN1CCCC1)NCCc1ccccc1	-7%	1.29
CCOCCCNCc1ccc(F)cc1Cl	-15%	2.51
COc1ccc([C@@H]2C[C@H](NC(C)=O)C[C@H](CC(C)C)O2)c(C)c1C	6%	-1.28

SMILES	% Inhibition	Z score
O=C(NCCCc1ccccc1)N1CCN(C(c2ccccc2)c2ccccc2)CC1	-9%	1.41
C[C@@H](CCn1cccn1)Nc1cccc(CO)c1	-1%	0.14
O=C(CCCn1cccn1)NCc1cc(C2CC2)[nH]n1	-17%	3.32
CCn1ncc(C(=O)N[C@@H](C)c2ccc(C)s2)c1C(F)(F)F	-9%	1.17
CCS(=O)(=O)N1CCCN(C(=O)C2CCCC2)CC1	-13%	2.17
N#Cc1c(-c2cccnc2)cc(-c2cccc(O)c2)nc1N	0%	0.06
CC(C)(CO)C(C)(C)NCc1ccc(Cl)cc1	-6%	0.66
O=S(=O)(c1cccc2ccncc12)N1CCCC1C1CCCO1 (configuration not stated)	-15%	1.84
COc1ccc(C(=O)Nc2cccnc2-n2cccn2)cc1OC	7%	-1.36
c1ccc2c(c1)CC(n1cc(-c3ncc[nH]3)nn1)C2	6%	-1.05
COc1ccc(N2CCN(C(=O)CN3C(=O)COc4cc(C(C)(C)C)ccc43)CC2)cc1	31%	-3.51
CCCCNC(=O)C1CCN(CC(O)CN2CCC(C(=O)NCCCC)CC2)CC1	4%	-0.74
Cc1ccc([C@H]2CN(C(=O)c3cc4ncccn4n3)C[C@@H]2N(C)C)cc1	0%	-0.04
CC(NCCC1CCCO1)c1ccccc1Cl (configuration not stated)	-4%	0.64
Cc1nc(CCCNC(=O)c2ccc(-c3cncc(O)n3)cc2)sc1C	9%	-1.52
CC1OCCC1S(=O)(=O)N1CCc2cccc(F)c2C1C (configuration not stated)	-5%	0.68
O=C(Nc1ccn(C2CCOCC2)n1)Nc1ncccc1N1CCOCC1	-14%	1.55
CC(C)c1ccc(N2CC[C@H](C(C)(C)O)C2)nn1	-3%	0.46
CCN(CC)S(=O)(=O)c1cc(-c2ccc(=O)[nH]n2)cc(C)c1C	-19%	2.54
CNc1nc(C(=O)NCCc2nc(C(C)C)cs2)cs1	-19%	1.69
C[C@](O)(CNC(=O)c1sccc1-n1ccnn1)C(F)(F)F	5%	-1.05
Cc1ccc(S(=O)(=O)N[C@@H](C(C)C)C2(CO)CCC2)cn1	-13%	1.75

SMILES	% Inhibition	Z score
O=C(Cc1cccs1)NCC1(O)CCCC1	-14%	2.36
O=C(COCC(=O)Nc1ccccn1)Nc1ccccc1	-2%	0.24
COc1ccc(F)c(C(=O)N2CCC3(CC2)[C@H](O)C[C@@H]3OC)c1F	5%	-0.98
Cc1ccccc1NC(=O)C(=O)N[C@@H](C)CCc1ccccc1	2%	-0.4
C[C@H](NC(=O)c1cncn1C)c1nnc(N)s1	4%	-0.8
C=CCCC(=O)N1CCCN(c2ccc3nnc(C)n3n2)CC1	-15%	1.74
CN(C)C[C@H]1C[C@H](CO)CN(C(=O)CCc2ccccc2Cl)C1	-10%	1.27
O=C(Cn1c2c(c(=O)n1-c1ccccc1)Cc1ccccc1O2)Nc1cccc2ccccc12	-18%	1.78
COc1ccc(C2CC(C(=O)NCc3cccnc3)N(C)S(=O)(=O)N2)cc1 (configuration not stated)	-5%	0.57
COC[C@H](C)NCc1cc(C)c(C)cc1C	-6%	0.76
CCn1nc(CNc2nccc(-c3cc(C(=O)O)ccn3)n2)c2ccccc21	-16%	1.99
c1cncc(Nc2nncn2Cc2nccs2)c1	-7%	1.15
Cc1cc(C(=O)Cn2c(=O)c(C#N)c3n(c2=O)CCC3)c(C)[nH]1	-15%	2.2
CN[C@@H](C)c1nc(CC(N)=O)nn1C1Cc2ccccc2C1	6%	-0.78
Cc1n[nH]c(C(=O)N2C[C@H]3CCC[C@@H](C2)N(C)C3=O)c1Cl	-13%	1.64
Cc1nc(-c2csc(S(=O)(=O)Nc3ccccc3C(C)C)c2)sc1C	5%	-0.59
O=C(NCc1ncc[nH]1)c1ccc2c(c1)OCO2	4%	-0.45
CCOc1ccc(OCc2n[nH]c([C@H]3CCOC(C)(C)C3)n2)cc1	-2%	0.37
Cc1noc(-c2sccc2NC(=O)c2ccccn2)n1	-1%	0.1
COc1ccc(-c2c(C)n[nH]c2NC(=O)CCc2ccccc2)cc1OC	-10%	1.49
N#CC1(CCCn2cnc3c2CCCC3)CCOCC1	3%	-0.43
C#CCn1cc(CN(C)C(=O)NC2CC2c2cccc(Cl)c2)cn1 (configuration not stated)	-4%	0.57

SMILES	% Inhibition	Z score
Cc1nc(-c2ncc(C(=O)N3CCO[C@H](c4ccccc4)C3)c(O)n2)cs1	-11%	1.81
CCc1ccc2ncc(C#N)c(N3CCC(C(=O)Nc4cccc(C(F)(F)F)c4)CC3)c2c1	3%	-0.58
COc1ccc([C@@H]2CN(C(=O)NCc3cc[nH]n3)CCO2)cc1OC	5%	-0.91
O=C(c1c(F)c(F)cc(F)c1F)N1CCN(c2nccc(-c3ccc(Oc4ccccc4)cc3)n2)CC1	0%	0.04
Cc1cc(C)c(CN2CCCN(C)CC2)c(-n2cccn2)c1	6%	-1.18
COc1ccc(-c2nc(CN3CC[C@H](N)C3)c(C)o2)c2ccccc12	7%	-0.98
COCCNC(=O)NC[C@H](O)c1ccc2c(ccn2C)c1	1%	-0.14
COc1ccc(-c2nc(-c3ccc4c(c3)ncn4CCC(=O)N3CCCC3)no2)c(C)c1	4%	-0.57
Cc1ccc2oc(-c3noc([C@]45CNC[C@H]4CCOC5)n3)cc2c1	4%	-0.83
Nc1cc(C2CCN(C(=O)Nc3ccc(F)cc3)CC2)no1	-3%	0.5
Cc1cc(C(=O)N2CCOCC2)nn1CC(=O)Nc1ccc(F)c(Cl)c1	-7%	1.2
CCc1cc(Cn2ccnc2-c2ccnc(CC)n2)on1	-11%	1.65
COc1ccc(-c2cnc3ncnn3c2N2CCN(C(C)=O)CC2)cc1OC	-8%	1.03
O=C(O)c1ccc(-c2ccc(CNC3CCCC3)o2)cc1	-10%	1.87
CN(C)C1CCCC1Oc1nccs1 (configuration not stated)	-6%	1.16
O=C(Cc1ccc(F)cc1Cl)N[C@H]1CCOC2(CCOCC2)C1	-9%	1.89
Fc1ccc(OCc2nc([C@@H]3CCCCN3)n(CC(F)(F)F)n2)cc1	1%	-0.11
CC(C)NCCNC1CCOC1c1ccc(Cl)c(F)c1 (configuration not stated)	-15%	1.92
C[C@H]1CN(c2cccc(Cl)c2)CCN1c1nccn2nnnc12	-16%	2.47
Cc1cc(C)c(C#N)c(N(C)CCCn2cccn2)n1	-18%	1.97
